Source: PubChem BioAssay AID2546 (National Center for Advancing Translational Sciences (NCATS), 2010)
Out of some 310,000 compounds screened, about 11,000 (3.5%) were called active. This list was built around the results that the source calls inconclusive (neither active nor inactive); the mix of calls is not that of the screen. The call rests on the fitted dose curve; in most records, active means well fitted inhibition curve with a large enough effect; inconclusive means small, poorly fitted or top-dose-only effect, or effect the other way; inactive means flat fitted curve, though single readings scatter. Potencies of inconclusive entries are left out as doubtful fits.

Assay: VP16 counterscreen qHTS for inhibitors of ROR gamma transcriptional activity;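 further: Gal4-VP16 expression switched on by copper sulfate through the metallothionein promoter; nearly all actives have a fitted effect of over 50% in size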
Details: Drosophila S2 Gal4-VP16 UAS-luciferase, luminescence, 20 h; activity, negative = inhibition: at 53.6 µM (top of the series)
On the % scale 0 is the no-effect control and ±100 the full control effect; potency means the concentration at half of the fitted maximal effect; tags describe the fitted curve by direction and shape.

Row | SMILES | activity, negative = inhibition | Potency
1 | COc1cc2c(cc1OC)C(c1ccc(OC)c(OC)c1OC)CC(=O)N2 (stereo not drawn) | inactive: 3.5% | 
2 | O=C(CCCO)N/N=C/c1cc(Br)ccc1O |  | active: 12.6 µM
3 | O=[N+]([O-])c1ccc(S(=O)(=O)CC(CN2CCOCC2)N2CCOCC2)cc1 (stereo not drawn) |  | inconclusive [inhibitor, single point]
4 | O=c1[nH]c2ccc(Cl)cc2c(-c2ccccc2)c1SC(=S)N1CCCCC1 |  | active: 7.08 µM
5 | N[C@H](CCCP(=O)(O)O)C(=O)O |  | inactive
6 | CCN1C(=O)N/C(=C/c2ccc(Sc3ccc(C)cc3)o2)C1=O |  | inconclusive [inhibitor, single point]
7 | CC[C@H](C)[C@@H](C(=O)N1CCNCC1)n1cc([C@@H](N)CO)nn1 | inactive: 3.73% | 
8 | Cc1ccc(Cn2cccc2/C=C2/C(=N)N3C=CSC3=NC2=O)cc1 |  | inconclusive [inhibitor, single point]
9 | CC(C)(C)NC(=O)COC(=O)c1ccc(NC(=O)CC#N)cc1 | inactive: 14.7% | 
10 | COC(=O)C(Cc1ccccc1)NC(=O)c1ccc(C)cc1 (stereo not drawn) | inactive: -11.7% | 
11 | COc1cccc(NC(=S)N(Cc2ccco2)C(C)c2ccco2)c1 (stereo not drawn) |  | active: 17.8 µM
12 | CCOC(=O)c1c(C)n(-c2ccc(C)cc2)c2ccc(OCC(O)CN3CCN(C)CC3)cc12 (stereo not drawn) |  | inconclusive [inhibitor, single point]
13 | Cc1ccc(C2=NNC(c3cccc(F)c3)S2)cc1 (stereo not drawn) |  | active: 7.08 µM
14 | S=C(NCCc1ccccc1)Nc1ccc(Br)cn1 |  | active: 5.01 µM
15 | Cc1ccccc1-n1nnnc1SCCCC(=O)c1ccc(F)cc1 |  | inconclusive [inhibitor, single point]
16 | COc1cccc(C(=O)/C=C/c2ccc(OCC#N)c(OC)c2)c1 |  | inconclusive [inhibitor, single point]
17 | COc1cccc(-c2c(C(=O)N/N=C/c3sccc3C)nnn2-c2nonc2N)c1 |  | active: 22.4 µM
18 | CN(C)c1ccc(-c2nc(Nc3ccncc3)c3ccccc3n2)cc1 |  | active: 15.8 µM
19 | CC(C)(C)c1ccc(C(=O)N2CCC(=O)N(C(COCc3ccccc3)Cc3ccccc3)CC2)cc1 (stereo not drawn) |  | active: 14.1 µM
20 | O=C(O)c1cc(/C=C/c2ccc(N3CCOCC3)cc2)nc2ccccc12 |  | active: 5.01 µM
21 | N=c1c(-c2nc3ccccc3[nH]2)cc(C(=O)c2ccco2)nn1-c1ccccc1 |  | active: 5.01 µM
22 | O=C(NCC1CCCO1)C1CC(=O)N(c2ccccc2)C1 (stereo not drawn) | inactive: -0.267% | 
23 | CN(C)CCCN(C(=O)c1ccc(S(=O)(=O)N2CCc3ccccc32)cc1)c1nc2ccc(Cl)cc2s1 |  | inconclusive [inhibitor, single point]
